Laboratory results as given in publication PMC4336329 (PLoS ONE, 2015).
Among all 310,000 compounds or so, about 2,200 (0.71%) showed an effect of 50% or more. Effects have a minus sign here. The list shows a part of the results.

biological target: human ether-à-go-go-related gene (hERG) potassium channel (human, UniProt Q12809); experiment: primary screen, population patch clamp on CHO cells stably expressing hERG
Sequence (Q12809 whole entry, looked up): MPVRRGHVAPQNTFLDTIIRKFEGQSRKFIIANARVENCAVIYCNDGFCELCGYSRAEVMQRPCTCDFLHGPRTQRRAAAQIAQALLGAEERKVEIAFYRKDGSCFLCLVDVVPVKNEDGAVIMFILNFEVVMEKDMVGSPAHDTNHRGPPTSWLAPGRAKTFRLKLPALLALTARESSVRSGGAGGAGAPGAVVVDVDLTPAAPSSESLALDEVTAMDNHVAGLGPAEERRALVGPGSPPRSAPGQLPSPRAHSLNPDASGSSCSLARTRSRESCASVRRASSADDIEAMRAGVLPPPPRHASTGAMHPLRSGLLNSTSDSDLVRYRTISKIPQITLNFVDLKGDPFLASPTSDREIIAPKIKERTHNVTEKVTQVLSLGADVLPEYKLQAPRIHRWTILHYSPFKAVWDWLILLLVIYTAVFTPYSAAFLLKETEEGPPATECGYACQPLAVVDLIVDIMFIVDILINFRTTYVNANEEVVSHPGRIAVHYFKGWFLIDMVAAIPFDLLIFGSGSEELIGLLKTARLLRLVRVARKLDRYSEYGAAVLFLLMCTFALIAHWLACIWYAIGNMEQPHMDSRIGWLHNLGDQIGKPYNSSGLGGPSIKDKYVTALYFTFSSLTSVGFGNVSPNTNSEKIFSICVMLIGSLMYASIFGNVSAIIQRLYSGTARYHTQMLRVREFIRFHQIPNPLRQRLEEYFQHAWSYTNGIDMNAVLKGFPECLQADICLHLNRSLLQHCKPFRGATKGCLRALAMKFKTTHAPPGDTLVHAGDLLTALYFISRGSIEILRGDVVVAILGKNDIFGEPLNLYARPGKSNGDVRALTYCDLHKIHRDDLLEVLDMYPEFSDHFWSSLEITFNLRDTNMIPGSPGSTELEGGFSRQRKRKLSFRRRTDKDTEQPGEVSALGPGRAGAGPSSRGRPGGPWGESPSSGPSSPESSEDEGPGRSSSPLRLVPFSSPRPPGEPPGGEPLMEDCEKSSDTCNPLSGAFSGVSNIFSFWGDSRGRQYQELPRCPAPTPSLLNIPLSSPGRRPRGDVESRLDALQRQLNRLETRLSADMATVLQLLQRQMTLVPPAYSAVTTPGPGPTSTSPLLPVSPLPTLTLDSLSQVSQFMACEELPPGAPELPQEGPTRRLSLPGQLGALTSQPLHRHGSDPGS

Structure (SMILES) | hERG current change (%, negative = inhibition) at 1uM [%]
COc1cccc(CN(C)C(=O)CSCC(=O)Nc2cccc(C)c2)c1OC | 5.68
CCOC(=O)C(CCCOc1ccccc1)C(=O)OCC | 2.16
O=C(c1ccco1)N1CCC(c2nc3c(nnn3Cc3c(Cl)cccc3Cl)c(=O)[nH]2)CC1 | 6.48
Nc1nn(-c2ccccc2)c2ccc([N+](=O)[O-])cc12 | -9.55
O=C(C1CCCN(S(=O)(=O)c2ccc(F)cc2)C1)N1CCCC1 (stereo not drawn) | 9.99
O=C(CN1CCOCC1)n1c2ccccc2c2ccccc21 | -1.47
COc1ccc(N2CCN(C(=O)Cc3ccc(Br)cc3)CC2)cc1 | 4.41
CCOC(=O)C1CCN(C(=O)Nc2ccc(C)c(Cl)c2)CC1 | 6.49
CCOc1ccc(/C=C/C2=NNC(=O)CC2)cc1 | 7.73
CN1CCN(Cc2nc3ccccc3c(=O)n2CC#N)CC1 | 6.37
C/C(=N\NC(=O)CC(C)C)c1c(C(F)(F)F)[nH]n(-c2nc3ccccc3s2)c1=O | 14.2
CCCCC1CCC(C(=O)N(CC(C)C)c2c(N)n(Cc3ccccc3)c(=O)[nH]c2=O)CC1 (stereo not drawn) | 14
Cc1cc(Cl)ccc1OCC(=O)Nc1cccc(S(=O)(=O)NC2=NCCCCC2)c1 | 10.1
COc1ccc(NC(=O)CN(c2ccccc2)S(=O)(=O)N(C)C)cc1Cl | 8.48
COC(=O)CSc1nc(C)c(Oc2ccccc2)c(=O)[nH]1 | 10.1
CCNc1nc(N2CCCC2)nc(N2CCCC2)n1 | 0.687
CCN(CC)c1cccc(OCC(=O)N(C)CCC#N)c1 | 18.6
CCOC(=O)CSc1nnc(-c2ccc([N+](=O)[O-])cc2)o1 | 8.46
C=CCOc1c(Br)cc(CNc2ccc(NC(=O)C(C)C)c(OC)c2)cc1OC | -6.12
O=C(NNC(=O)c1cnccn1)c1ccc(Cl)cc1 | 14.5
Cc1ccc(S(=O)(=O)Nc2ccc(Nc3ccccc3)cc2)cc1 | 11.7
CCOc1cc2c(cc1C(C)(C)C)NC(=O)CS2 | 6.49
CCCc1cc(=O)n2[nH]cc(-c3ccc(Cl)cc3)c2n1 | 13.2

Structure (SMILES) | hERG current change (%, negative = inhibition) at 1uM [%]
CCCC(=O)Nc1sc(C(=O)OC)c(C)c1C(N)=O | 8.48
CCOC(=O)c1c(C)c(C(=O)Nc2ccc(F)cc2)c(C)n1C | 12.2
Cc1c(NS(=O)(=O)c2ccc(N=NN(C)C)cc2)c(=O)n(-c2ccccc2)n1C | 2.42
CN(/N=C/c1ccc(O)cc1O)c1ncc(C(F)(F)F)cc1Cl | 13.6
COc1ccc(NC(=O)c2ccc([N+](=O)[O-])o2)cc1 | 14.5
Cc1ccc(-c2c(C#N)c(N)n(-c3ccc(C)cc3)c(=O)c2C#N)cc1 | 9.99
CCOc1ccccc1NC(=O)CCSc1nc2n[nH]c(C)c2c(=N)n1-c1ccccc1Cl | -2.02
C/C(=N\N1CCCCCC1)c1c(O)n(-c2ccccc2)c(=O)[nH]c1=O | 4.46
O=C(Nc1ccc2ccccc2c1)C(c1ccccc1)C1CCCC1 (stereo not drawn) | 3.85
Cc1ccc(-n2c(Cc3cccn3C)nnc2SCC(=O)N2CCc3ccccc32)cc1 | -1.98
Cc1nnc(SCC(=O)Nc2ccc3c(c2)OCO3)o1 | 14.8
CCOC(=O)c1cc(-c2ccccc2)sc1NC(=O)C(C)Sc1nnnn1C (stereo not drawn) | 9.21
O=C(c1ccccc1F)N1CCN(Cc2nc3sc4c(c3c(=O)[nH]2)CCCC4)CC1 | -34.7
CCOCCc1nnc(NC(=O)Cc2ccc(Br)cc2)s1 | -6.64
O=C(c1ccc(NS(=O)(=O)c2cccs2)cc1)N1CCCCC1 | 5.03
O=C1/C(=C/c2ccncc2)SC(=S)N1Cc1ccccc1 | -3.95
Cc1c(NP(=O)(Oc2ccccc2F)Oc2ccccc2F)c(=O)n(-c2ccccc2)n1C | 5.11
NNC(=O)C1SCCN1S(=O)(=O)c1ccc(Cl)cc1 (stereo not drawn) | 14.7
CN(C)S(=O)(=O)c1ccc(C(=O)Nc2ccn(C)n2)cc1 | 8.2
COc1ccc(CNC(=O)C(=O)NCCC2CCCCN2S(=O)(=O)c2cccs2)cc1 (stereo not drawn) | 11.7
CCOc1ccc(N2C(=O)CC(Cc3cc(C)cc(C)c3)C2=O)cc1 (stereo not drawn) | 15.2
O=C(O)Cc1ccc(O)c(F)c1 | 4.7
